# Measurements reported in PubChem BioAssay AID720709 (National Center for Advancing Translational Sciences (NCATS), 2013).
# About 520 (0.14%) of roughly 360,000 compounds were called active. Inconclusive means that the source gave no clear call. Such entries were picked first, then a sample of the others. Calls follow the shape of the dose curve; as a rule, active = well fitted inhibition curve with a large enough effect; inconclusive = small, poorly fitted or top-dose-only effect; inactive = no such curve, though single readings can be large or run the other way. Potencies of inconclusive entries are left out as doubtful fits.
# Target: Rap guanine nucleotide exchange factor 3 (Homo sapiens) (UniProt O95398)
# Experiment: qHTS for Antagonist of cAMP-regulated guanine nucleotide exchange factor 3 (EPAC1): primary screen; also: nearly all actives have a fitted effect of over 50% in size;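 as to activity change, negative = inhibition: plate controls were vehicle for no effect and positive control for full effect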
# Details: EPAC1 GEF assay, Rap1b-BODIPY-GDP exchange fluorescence; activity change, negative = inhibition: at 115 µM (top of the series)
# Potency is read from the fitted curve at half-maximal effect; tags tell the direction and shape of the fitted curve.
# UniProt O95398, sequence (O95398 whole entry, looked up): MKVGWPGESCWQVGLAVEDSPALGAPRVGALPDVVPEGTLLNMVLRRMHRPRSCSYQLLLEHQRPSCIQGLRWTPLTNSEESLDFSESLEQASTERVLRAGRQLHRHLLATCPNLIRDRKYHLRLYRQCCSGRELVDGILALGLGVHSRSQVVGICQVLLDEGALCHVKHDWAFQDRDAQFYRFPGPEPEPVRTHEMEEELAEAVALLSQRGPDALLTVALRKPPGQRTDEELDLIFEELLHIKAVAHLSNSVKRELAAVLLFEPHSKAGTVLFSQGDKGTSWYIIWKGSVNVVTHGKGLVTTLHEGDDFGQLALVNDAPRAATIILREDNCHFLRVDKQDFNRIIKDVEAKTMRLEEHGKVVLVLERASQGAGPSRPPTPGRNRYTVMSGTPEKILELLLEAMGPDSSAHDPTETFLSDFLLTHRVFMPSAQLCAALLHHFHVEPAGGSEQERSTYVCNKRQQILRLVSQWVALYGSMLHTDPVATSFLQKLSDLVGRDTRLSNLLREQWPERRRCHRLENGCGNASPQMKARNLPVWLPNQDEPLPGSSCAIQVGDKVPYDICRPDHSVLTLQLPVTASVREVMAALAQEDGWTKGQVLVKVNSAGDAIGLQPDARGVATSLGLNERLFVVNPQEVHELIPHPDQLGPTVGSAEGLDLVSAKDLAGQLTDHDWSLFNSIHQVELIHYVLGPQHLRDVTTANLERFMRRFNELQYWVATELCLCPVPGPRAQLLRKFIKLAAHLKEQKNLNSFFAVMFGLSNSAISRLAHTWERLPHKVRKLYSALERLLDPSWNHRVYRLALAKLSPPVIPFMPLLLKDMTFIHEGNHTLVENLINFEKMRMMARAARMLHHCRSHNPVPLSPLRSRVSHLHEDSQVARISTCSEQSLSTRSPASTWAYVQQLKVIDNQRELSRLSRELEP
Compound,Potency,"activity change, negative = inhibition"
COc1ccc(NC(=O)CN2C(=O)NC(c3ccccc3)(c3ccccc3)C2=O)cc1,"inconclusive [inhibitor, partial curve]",–
CCOc1ccccc1CNC(=O)Cn1nc(C)c2c(C)n(-c3ccc(C)cc3)nc2c1=O,"inconclusive [inhibitor, partial curve]",–
O=C(N/N=C1\CC(c2ccccc2)Oc2ccccc21)c1cccnc1 (stereo unspecified),"inconclusive [inhibitor, partial curve]",–
Cc1cc2nc(N3C(=O)CNC3=S)sc2cc1C,"inconclusive [inhibitor, full curve, poor fit]",–
COc1cc(OC)cc(-c2oc(=O)c3cc(OC)c(OC)cc3c2C(F)(F)F)c1,"inconclusive [inhibitor, single point]",–
Cc1ccc(-c2nn3cnnc3c3ccccc23)cc1C,"inconclusive [inhibitor, single point]",–
CC(=O)Nc1ccc(S(=O)(=O)Nc2cc(C)cn(Cc3ccccc3)c2=O)cc1,–,inactive: -6.04%
Nc1ccc(Oc2ncccn2)cc1,"inconclusive [inhibitor, partial curve]",–
Cc1cc(C(=O)N2CCN(c3ccc([N+](=O)[O-])cc3)CC2)no1,"inconclusive [inhibitor, partial curve]",–
N#CC(C#N)=C1C=C2C=C(N3CCOCC3)CCC2CC1 (stereo unspecified),–,inactive: 152%
COc1ccccc1CN(C)CC(=O)Nc1ccc(Cl)cc1C(F)(F)F,"inconclusive [inhibitor, partial curve, poor fit]",–
COc1ccccc1CCC(=O)Nc1ccc2c(c1)CN(Cc1ccc(CO)o1)CC2,–,inactive: -14%
COc1ccc(C)cc1S(=O)(=O)Nc1cccc(SC)c1,"inconclusive [inhibitor, full curve, poor fit]",–
C=C1c2cccc(OC)c2O[C@H](C(=O)OCC)[C@@H]1CCCCCC,"inconclusive [inhibitor, partial curve]",–
CCOC(=O)N/N=C/c1cn(CCCOc2ccc(C)cc2)c2ccccc12,"inconclusive [inhibitor, full curve, poor fit]",–
N#C/C(=C\c1ccc(O)c([N+](=O)[O-])c1)c1nc2ccccc2s1,"inconclusive [inhibitor, partial curve]",–
CCOc1c(O)ccc(/C=C2\SC(=S)NC2=O)c1[N+](=O)[O-],–,inactive: -21.1%
COc1ccc(NC(=O)c2cc([N+](=O)[O-])ccc2N2CCCCC2)cc1,"inconclusive [inhibitor, full curve, poor fit]",–
CCOc1ccc2nc(SCC(=O)NCc3ccco3)sc2c1,"inconclusive [inhibitor, partial curve]",–
Cc1ccc(-c2ccc(CN3C(CC(C)C)C(=O)N(Cc4cn(CCC5OCCCO5)nn4)CCS3(=O)=O)cc2)cc1 (stereo unspecified),–,inactive: -7.12%
Cc1ccccc1-c1noc(-c2ccccc2C(=O)NCc2ccco2)n1,"inconclusive [inhibitor, partial curve]",–
CCOC(=O)CCc1nc2ccccc2[nH]c1=O,"inconclusive [inhibitor, partial curve, poor fit]",–

Compound,Potency,"activity change, negative = inhibition"
O=C(O)CCCC(=O)NNC(=O)c1cccc(Br)c1,–,inactive: -5.87%
COc1ccc(OCC(=O)OCCNC(=O)c2cccnc2)cc1,"inconclusive [inhibitor, partial curve, poor fit]",–
O=c1[nH]n2c(=O)c3c([nH]c2c1N=Nc1cccc(Cl)c1)CCCC3,"inconclusive [inhibitor, full curve]",–
COc1ccc(/C=C/C(=O)Nc2cc(C)nn2-c2nc3ccccc3[nH]2)cc1,"inconclusive [inhibitor, single point]",–
Cc1cc(NC(=O)c2ccc(Cn3nc(C)c(Br)c3C)o2)no1,"inconclusive [inhibitor, partial curve]",–
CCOC(=O)C1CCCN(C(=O)Cn2sc3nc(C)cc(C)c3c2=O)C1 (stereo unspecified),"inconclusive [inhibitor, single point]",–
COc1ccc(C=O)cc1COc1ccc(Cl)cc1[N+](=O)[O-],"inconclusive [inhibitor, partial curve]",–
CCN(CC)S(=O)(=O)c1ccc(C)c(NC(=O)c2cc(C)oc2C)c1,"inconclusive [inhibitor, full curve, poor fit]",–
CC1(C(=O)Nc2ccc3c(c2)OCO3)CCN1Cc1cccc2c1OCO2 (stereo unspecified),"inconclusive [inhibitor, single point]",–
CCCCn1nnc(NC(=O)COc2cc(C)ccc2C(C)C)n1,"inconclusive [inhibitor, single point]",–
CCCc1cc(=O)[nH]c(SCC(=O)c2ccc3c(c2)NC(=O)CO3)n1,"inconclusive [inhibitor, single point]",–
CCn1c(CNC(=O)COC)nc2ccccc21,"inconclusive [inhibitor, single point]",–
COc1cc(OC)cc(-c2noc(-c3csc([C@H]4C[C@H](O)[C@@H](CO)O4)n3)n2)c1,"inconclusive [inhibitor, single point]",–
COc1ccc(CN2CCSCC2)c(C)c1C,–,inactive: -2.73%
COCCNc1c(-c2ccc(OC)cc2)nc2ccc(Cl)cn12,"inconclusive [inhibitor, full curve, poor fit]",–
Cc1ccccc1NC(=O)C(=Cc1ccc(C(=O)O)cc1)C(=O)Nc1ccccc1C,"inconclusive [inhibitor, single point]",–
CCCCCn1c(CN2CCN(CCO)CC2)nc2c1c(=O)n(C)c(=O)n2C,"inconclusive [inhibitor, single point]",–
CCOc1ccc(NC(=O)Cn2nnc(C(=O)NCc3ccc4c(c3)OCO4)c2N)cc1,"inconclusive [inhibitor, partial curve]",–
CCCOC(=O)c1c(NC(=O)C2C3C=CC(C3)C2C(=O)O)sc2c1CCC(C)C2 (stereo unspecified),"inconclusive [inhibitor, partial curve, poor fit]",–
CC(=O)c1sc(NC(=O)C2CC(=O)N(Cc3ccccc3)C2)nc1-c1ccccc1 (stereo unspecified),"inconclusive [inhibitor, partial curve]",–
COCCN(CCOC)S(=O)(=O)c1ccc(C(=O)Nc2c(C)n(C)n(-c3ccccc3)c2=O)cc1,"inconclusive [inhibitor, single point]",–
CCC(C(=O)NC1CCCCC1)n1c(SCc2cccc(F)c2)nc2ccncc21 (stereo unspecified),"inconclusive [inhibitor, single point]",–

Compound,Potency,"activity change, negative = inhibition"
O=C(O)c1cccc(N/N=C/c2cccc3ccccc23)c1,"inconclusive [inhibitor, single point]",–
COC(=O)c1ccc2nc(-c3ccco3)c(Cc3ccc(OC)cc3C)n2c1,"inconclusive [inhibitor, partial curve]",–
CCn1c(/C=C/c2ccccc2F)nc2ccccc2c1=O,"inconclusive [inhibitor, full curve, poor fit]",–
CCOC(=O)C1(Cc2cccc(OC)c2)CCN(Cc2csc(C(C)=O)c2)CC1,"inconclusive [inhibitor, single point]",–
O=C(O)CNS(=O)(=O)c1ccc2c(c1)Cc1cc(S(=O)(=O)NCC(=O)O)ccc1-2,–,inactive: 6.87%
Clc1ccccc1Cn1nnc(-c2ccccc2)n1,–,inactive: -2.74%
C=CCNc1ncnc2c1[nH]c1ccc(C)cc12,"inconclusive [inhibitor, partial curve]",–
O=C(NCCc1csc(-c2cccnc2)n1)c1cccs1,–,inconclusive: -1.9% [inhibitor]
Cc1ccc(S(=O)(=O)N2CC(O)C[C@H]2C(=O)OCC(=O)N2CCN(c3ccc(F)cc3)CC2)cc1C (stereo partly specified),–,inactive: -9.16%
CCOc1cccc(CNc2ccc(O)cc2)c1OCc1ccc(Cl)cc1,active: 25.1 µM,–
CC(=O)c1csc(COc2ccc(Cl)cc2)n1,–,inactive: -21.9%
COC(=O)c1sccc1NC(=O)COc1ccc(F)cc1Cl,–,inactive: 8.16%
CCCCCNC(=O)C(c1cc2ccccc2o1)n1c(=O)c(-c2ccco2)nc2ccccc21 (stereo unspecified),active: 56.2 µM,–
CCOC(=O)c1ccc(N2C(=O)CC(NC3CCN(C(=O)c4cccc(Cl)c4)CC3)C2=O)cc1 (stereo unspecified),"inconclusive [inhibitor, single point]",–
O=C(/C=C/c1ccc2c(c1)OCO2)Nc1cc(S(=O)(=O)N2CCOCC2)ccc1N1CCOCC1,"inconclusive [inhibitor, partial curve, poor fit]",–
CCc1ccc(C(=O)NNc2ccc(C)c(Cl)c2)cc1,–,inactive: -12.6%
O=C1CSC(=S)N1/N=C/C=C/c1ccccc1,"inconclusive [inhibitor, single point]",–
O=C(Nc1cc(Cl)cc2c1-c1ccc(Cl)cc1C2O)C(Cl)Cl (stereo unspecified),"inconclusive [inhibitor, full curve, poor fit]",–
COc1ccc(CCNC(=O)CCc2nc3sc4c(c3c(=O)[nH]2)CCCC4)cc1,"inconclusive [inhibitor, single point]",–
O=C(CC1(O)C(=O)N(Cc2ccc3c(c2)OCO3)c2ccccc21)c1ccccc1 (stereo unspecified),–,inconclusive: -17.8% [inhibitor]
COC(=O)c1sc(C(F)(F)F)c(-c2ccccc2)c1S(=O)(=O)N1CCCC1,–,inactive: -7.72%
Cc1ccc(-n2ncc3c(SCc4ccccn4)ncnc32)c(C)c1,"inconclusive [inhibitor, single point]",–
